Here are results for 112 sequences from the supplement of paper PMC3724861.

Some of the results follow.

The test system of this assay is T1, Caupolican (Caup) homeodomain DNA-binding domain.
T1 sequence: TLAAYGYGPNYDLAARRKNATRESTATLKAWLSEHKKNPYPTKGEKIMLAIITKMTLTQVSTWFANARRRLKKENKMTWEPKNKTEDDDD
Description: PBM E-score (8-mer, recovered from the published 9-mer minima) (E-score (dimensionless, -0.5 to 0.5)); Drosophila protein; higher = stronger relative binding preference, active = 0.31 or more. Summed up:
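An enrichment score, with higher meaning stronger, expresses relative binding preference for each short DNA word. The protein used was Caup's homeodomain DNA-binding domain (residues 214-303), produced by in vitro transcription and translation and tested at 100 nM on custom-designed protein binding microarrays. The 8-mer values were recovered from published 9-mer scores, each equal to the lower of its two constituent 8-mer scores.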
Consider TGTTTTAA, for which the “PBM E-score” value was inactive: 0.254.
With ATTCCCGA, the “PBM E-score” value is inactive: -0.0386.
The value for ACGTTTAC was inactive: 0.106; that for AATTAAAA was inactive: 0.0931; that for CATACACA was inactive: 0.309.
For the sequence ATCTACCG, the “PBM E-score” value was inactive: -0.0221.
The value for AACTAGAG was inactive: 0.0141; that for TGACTGAA was inactive: -0.0626; that for AGACACGA was inactive: 0.261.
Consider CGCACACC, for which the “PBM E-score” value was inactive: -0.0918.
In the case of ACGGCTTA it was inactive: -0.137.
The value for GCTTAGCC was inactive: -0.113; that for CATCTGGG was inactive: -0.0619; that for GGGATGCA was inactive: -0.124.
In the case of ACAATCTA it was inactive: 0.136.
GATACTCA: the “PBM E-score” value is inactive: -0.0139.
For the sequence GACTCGCC, the “PBM E-score” value was inactive: -0.195.
Consider CCGAGTGA, for which the “PBM E-score” value was inactive: 0.00532.
As for ATCACTCA, the “PBM E-score” value was inactive: 0.0935.
In the case of GGGAGCGA it was inactive: -0.21.
Turning to GATCTAAA, the “PBM E-score” value is inactive: -0.0342.
Turning to ACTAGAGG, the “PBM E-score” value was inactive: -0.0325.
Regarding CCATACGG, the “PBM E-score” value was inactive: -0.049.
The value for TTAGGCAA was inactive: -0.00698; that for ACAACACG was active: 0.387.
In the case of GGGGACGA it was inactive: -0.139; in that of AACATAAA, inactive: 0.286.
The value for AGATTTAT was inactive: 0.0344; that for AATTACAA was active: 0.396.
For the sequence GTAGCGCA, the “PBM E-score” value was inactive: -0.05.
In the case of GCGTATTA, the “PBM E-score” value is inactive: 0.0562.
The value for TAGCGCAA was inactive: -0.00448; that for AACGCACT was at least 0.0457.
The value for CTGGGACA was inactive: 0.0672; that for CCGGCTAA was inactive: -0.0794; that for AAGGACAA was inactive: 0.223.
In the case of AATTTGTG it was inactive: 0.106; in that of AAACTTCT, inactive: 0.0695; in that of GGCAAGCC, inactive: -0.165.
In the case of CCTAACAC, the “PBM E-score” value is inactive: 0.132.
In the case of ACTCCCTA it was inactive: 4e-05; in that of CGGCTTAG, inactive: -0.235; in that of GGGTAGTA, inactive: 0.0131.
The value for CACATCAG was inactive: 0.0583; that for ATTAGTCG was inactive: 0.13; that for ACGGTCTC was inactive: -0.134.
In the case of AGTACGCC it was inactive: -0.0929; in that of CCGAGCAC, inactive: -0.11.
Turning to AGAAGGCA, the “PBM E-score” value is at least -0.111.
The value for GAAGTCCA was inactive: -0.0703.
For the sequence GCATTTAA, the “PBM E-score” value is inactive: 0.11.
The value for CCATCGCG was inactive: -0.1.
In the case of AGCAGAGA it was inactive: -0.0842; in that of GGCGAAAA, inactive: -0.0815; in that of ACGAAATG, inactive: 0.0544.
In the case of AATGCCGA it was inactive: -0.0808; in that of CACCCGAA, inactive: -0.0428; in that of GTCGTCGA, inactive: 0.032.
For AGCGCCGC, the “PBM E-score” value is inactive: -0.25.
In the case of CTATAATC it was inactive: 0.135; in that of CTGCCGCA, inactive: -0.22; in that of CTTTAGAA, inactive: 0.0157.
In the case of ACGTAGGA it was inactive: 0.0363.
In the case of ACGCTGTA it was inactive: 0.151; in that of AATCGAAT, inactive: 0.0651.
In the case of GACTAGCA, the “PBM E-score” value was inactive: 0.0163.
The value for GCGGCAGC was inactive: -0.229; that for TAACTATA was inactive: 0.18.
The value for GCCCAGGA was inactive: -0.148; that for AGACGATG was inactive: 0.075.
The value for GACTTTCC was inactive: -0.089; that for CATGTAGA was active: 0.391; that for ATCTGCAC was inactive: -0.0707.
As for GCTGGATA, the “PBM E-score” value is inactive: 0.0778.
For the sequence CCGAAGCA, the “PBM E-score” value is inactive: 0.0118.
In the case of CAACATTG it was inactive: 0.286.
With AGCGCGGG, the “PBM E-score” value was inactive: -0.0707.
In the case of ATCCGACA it was inactive: 0.221.
The value for CACCACAC was inactive: -0.0395; that for CGTGACAG was inactive: 0.0683; that for ACCAGCCC was inactive: -0.0337.
The value for ATTAAGAG was inactive: 0.042; that for AACCGTCC was inactive: -0.158.
Regarding ACCTTAAC, the “PBM E-score” value is inactive: 0.0139.
In the case of AGTTTCGC it was inactive: -0.047.
The value for GGTGTATA was inactive: 0.133; that for GATGCCAC was inactive: -0.164.
The value for GCGGTGCC was inactive: -0.251.
On to GATGCCTA, for which the “PBM E-score” value is inactive: 0.0242.
In the case of CACTAGTA it was inactive: 0.206; in that of GACTTACA, inactive: 0.246.
In the case of ATCGAGTC it was inactive: 0.0704; in that of CTGCTGTC, inactive: -0.0348; in that of AACAGATA, inactive: 0.157.
For the sequence ACCTATAA, the “PBM E-score” value is inactive: 0.0958.
With CCCGCTAA, the “PBM E-score” value is inactive: -0.182.
The value for GAGGAAAC was inactive: -0.0465; that for CAGTGGGG was inactive: -0.234.
In the case of ACCAGGCC, the “PBM E-score” value was inactive: -0.0236.
The value for TAAATCGA was at least 0.137; that for AATACTGG was inactive: 0.0248; that for CCCAGCAC was inactive: -0.239.
In the case of GGGTACCC it was inactive: -0.274; in that of CAAAGCCA, inactive: -0.0873.
Turning to CATACATC, the “PBM E-score” value is inactive: 0.251.
In the case of CCCGGCCG it was inactive: -0.313.
For GCGTCCTA, the “PBM E-score” value was inactive: -0.0542.
On to CTGCTAGA, for which the “PBM E-score” value is inactive: -0.0792.
In the case of CAGACCCA it was inactive: -0.107; in that of CGTAAAGA, inactive: -0.00051; in that of CGGTTGAC, inactive: 0.00952.
In the case of AGATTCTG, the “PBM E-score” value was inactive: -0.0214.
